B1: GAAGAUC (DNA:RNA)
RNA: GGGAGACCGGAAUUCAGAUUGUCCGAAGAUCUUAAAUCCCGUCGUAGCCACCA
DNA 1: CAATCTGAATTCCGGTCTCCC
DNA 2: TGGTGGCTACGACGGGATT
B2: AAAGAGU (DNA:RNA)
RNA: B1 RNA with G25A, U30G, C31U
DNA 1: CAATCTGAATTCCGGTCTCCC
DNA 2: TGGTGGCTACGACGGGATT
B3: GUCUGUC (DNA:RNA)
RNA: B1 RNA with A26U, A27C, G28U, A29G
DNA 1: CAATCTGAATTCCGGTCTCCC
DNA 2: TGGTGGCTACGACGGGATT
B4: GUCGUAA (DNA:RNA)
RNA: B1 RNA with A26U, A27C, A29U, U30A, C31A
DNA 1: CAATCTGAATTCCGGTCTCCC
DNA 2: TGGTGGCTACGACGGGATT
B5: CGGCAUU (DNA:RNA)
RNA: B1 RNA with G25C, A26G, A27G, G28C, C31U
DNA 1: CAATCTGAATTCCGGTCTCCC
DNA 2: TGGTGGCTACGACGGGATT
B6: CCUAGCC (DNA:RNA)
RNA: B1 RNA with G25C, A26C, A27U, G28A, A29G, U30C
DNA 1: CAATCTGAATTCCGGTCTCCC
DNA 2: TGGTGGCTACGACGGGATT
B7: GAAGGUG (DNA:RNA)
RNA: B1 RNA with A29G, C31G
DNA 1: CAATCTGAATTCCGGTCTCCC
DNA 2: TGGTGGCTACGACGGGATT
B8: GGUCACA (DNA:RNA)
RNA: B1 RNA with A26G, A27U, G28C, U30C, C31A
DNA 1: CAATCTGAATTCCGGTCTCCC
DNA 2: TGGTGGCTACGACGGGATT
B9: AAAGGGC (DNA:RNA)
RNA: B1 RNA with G25A, A29G, U30G
DNA 1: CAATCTGAATTCCGGTCTCCC
DNA 2: TGGTGGCTACGACGGGATT
B10: CAGGCUG (DNA:RNA)
RNA: B1 RNA with G25C, A27G, A29C, C31G
DNA 1: CAATCTGAATTCCGGTCTCCC
DNA 2: TGGTGGCTACGACGGGATT
B11: GUAUAGU (DNA:RNA)
RNA: B1 RNA with A26U, G28U, U30G, C31U
DNA 1: CAATCTGAATTCCGGTCTCCC
DNA 2: TGGTGGCTACGACGGGATT
B12: GACACCC (DNA:RNA)
RNA: B1 RNA with A27C, G28A, A29C, U30C
DNA 1: CAATCTGAATTCCGGTCTCCC
DNA 2: TGGTGGCTACGACGGGATT
B13: AGAUUGC (DNA:RNA)
RNA: B1 RNA with G25A, A26G, G28U, A29U, U30G
DNA 1: CAATCTGAATTCCGGTCTCCC
DNA 2: TGGTGGCTACGACGGGATT
B14: CGUUCCC (DNA:RNA)
RNA: B1 RNA with G25C, A26G, A27U, G28U, A29C, U30C
DNA 1: CAATCTGAATTCCGGTCTCCC
DNA 2: TGGTGGCTACGACGGGATT
B15: CGACGGU (DNA:RNA)
RNA: B1 RNA with G25C, A26G, G28C, A29G, U30G, C31U
DNA 1: CAATCTGAATTCCGGTCTCCC
DNA 2: TGGTGGCTACGACGGGATT
B16: AACAACU (DNA:RNA)
RNA: B1 RNA with G25A, A27C, G28A, U30C, C31U
DNA 1: CAATCTGAATTCCGGTCTCCC
DNA 2: TGGTGGCTACGACGGGATT
B17: GCAGACU (DNA:RNA)
RNA: B1 RNA with A26C, U30C, C31U
DNA 1: CAATCTGAATTCCGGTCTCCC
DNA 2: TGGTGGCTACGACGGGATT
B18: UGGGAAG (DNA:RNA)
RNA: B1 RNA with G25U, A26G, A27G, U30A, C31G
DNA 1: CAATCTGAATTCCGGTCTCCC
DNA 2: TGGTGGCTACGACGGGATT
B19: GUAAUUA (DNA:RNA)
RNA: B1 RNA with A26U, G28A, A29U, C31A
DNA 1: CAATCTGAATTCCGGTCTCCC
DNA 2: TGGTGGCTACGACGGGATT
B20: AAAUUUG (DNA:RNA)
RNA: B1 RNA with G25A, G28U, A29U, C31G
DNA 1: CAATCTGAATTCCGGTCTCCC
DNA 2: TGGTGGCTACGACGGGATT
B21: ACCAUUU (DNA:RNA)
RNA: B1 RNA with G25A, A26C, A27C, G28A, A29U, C31U
DNA 1: CAATCTGAATTCCGGTCTCCC
DNA 2: TGGTGGCTACGACGGGATT
B22: GCCAGGA (DNA:RNA)
RNA: B1 RNA with A26C, A27C, G28A, A29G, U30G, C31A
DNA 1: CAATCTGAATTCCGGTCTCCC
DNA 2: TGGTGGCTACGACGGGATT
B23: UCUUGUG (DNA:RNA)
RNA: B1 RNA with G25U, A26C, A27U, G28U, A29G, C31G
DNA 1: CAATCTGAATTCCGGTCTCCC
DNA 2: TGGTGGCTACGACGGGATT
B24: AGAGCUG (DNA:RNA)
RNA: B1 RNA with G25A, A26G, A29C, C31G
DNA 1: CAATCTGAATTCCGGTCTCCC
DNA 2: TGGTGGCTACGACGGGATT
B25: ACAUAUG (DNA:RNA)
RNA: B1 RNA with G25A, A26C, G28U, C31G
DNA 1: CAATCTGAATTCCGGTCTCCC
DNA 2: TGGTGGCTACGACGGGATT
B26: UUCUCCG (DNA:RNA)
RNA: GGGAGACCGGAAUUCAGAUUGUCCUUCUCCGUUAAAUCCCGUCGUAGCCACCA
DNA 1: CAATCTGAATTCCGGTCTCCC
DNA 2: TGGTGGCTACGACGGGATT
B27: GAGUGGG (DNA:RNA)
RNA: B1 RNA with A27G, G28U, A29G, U30G, C31G
DNA 1: CAATCTGAATTCCGGTCTCCC
DNA 2: TGGTGGCTACGACGGGATT
B28: CAGUCUU (DNA:RNA)
RNA: B1 RNA with G25C, A27G, G28U, A29C, C31U
DNA 1: CAATCTGAATTCCGGTCTCCC
DNA 2: TGGTGGCTACGACGGGATT
B29: AAACCUC (DNA:RNA)
RNA: B1 RNA with G25A, G28C, A29C
DNA 1: CAATCTGAATTCCGGTCTCCC
DNA 2: TGGTGGCTACGACGGGATT
B30: CGAGUUC (DNA:RNA)
RNA: B1 RNA with G25C, A26G, A29U
DNA 1: CAATCTGAATTCCGGTCTCCC
DNA 2: TGGTGGCTACGACGGGATT
B31: UCUGAAC (DNA:RNA)
RNA: B1 RNA with G25U, A26C, A27U, U30A
DNA 1: CAATCTGAATTCCGGTCTCCC
DNA 2: TGGTGGCTACGACGGGATT

Drawing on publication PMC9911399, “Two distinct binding modes provide the RNA-binding protein RbFox with extraordinary sequence specificity”, this text covers binding signal for 31 molecules.

Changes are numbered by the printed parent chain; changes in the protein carry UniProt numbers. The list shows a part of the results.

The experiment addresses T1, RBFOX1 RRM (Homo sapiens, UniProt Q9NWB1 109-208).
T1 sequence: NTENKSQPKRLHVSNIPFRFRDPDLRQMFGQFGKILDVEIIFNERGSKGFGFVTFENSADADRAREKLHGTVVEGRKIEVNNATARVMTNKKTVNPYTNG
Nature of the experiment: EMSA; HiTS-Eq, 1 nM pool, 10 min; buffer printed only for the single-RNA assays: 10 mM Tris pH 7.5, 150 mM NaCl, 3.4 mM EDTA, 0.001% NP-40, 30 C. The note with it: tags: His6 N-terminal (pET28a); label: 5' 32P. The gist of the method: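 Relative association constants, normalised to the cognate motif, were derived by comparing read counts of each RNA species with those of the control reaction. The RNA sequenced was the free fraction, separated by 8% native PAGE after a 10 min equilibration in 50 µL of 1 nM 5′-radiolabelled RNA (7 randomized nucleotides) with increasing concentrations of purified wild-type or mutant RbFox RRM.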
Background: A gel shift assay detects complexes by their altered migration in electrophoresis.
On to B1, for which the binding signal is 0.0114 KA relative to UGCAUGU. As for B2, the binding signal was 0.00527 KA relative to UGCAUGU. The same measure for B3: 0.0176 KA relative to UGCAUGU; for B4: 0.00666 KA relative to UGCAUGU. Take B5: the binding signal was 0.0122 KA relative to UGCAUGU. In the case of B6, the binding signal was 0.00506 KA relative to UGCAUGU.

As for B7, the binding signal is 0.0185 KA relative to UGCAUGU. B8: the binding signal was 0.00186 KA relative to UGCAUGU.

For B9, the binding signal was 0.00798 KA relative to UGCAUGU. The same measure for B10: 0.0137 KA relative to UGCAUGU; for B11: 0.00855 KA relative to UGCAUGU; for B12: 0.00284 KA relative to UGCAUGU. The same measure for B13: 0.013 KA relative to UGCAUGU; for B14: 0.00758 KA relative to UGCAUGU. The same measure for B15: 0.0141 KA relative to UGCAUGU; for B16: 0.00134 KA relative to UGCAUGU; for B17: 0.00947 KA relative to UGCAUGU. Consider B18, for which the binding signal was 0.0374 KA relative to UGCAUGU.

Take B19: the binding signal was 0.00398 KA relative to UGCAUGU. Take B20: the binding signal was 0.0123 KA relative to UGCAUGU. For B21, the binding signal is 0.00156 KA relative to UGCAUGU. The same measure for B22: 0.0155 KA relative to UGCAUGU; for B23: 0.0192 KA relative to UGCAUGU. With B24, the binding signal is 0.0152 KA relative to UGCAUGU. As to B25, the binding signal is 0.00418 KA relative to UGCAUGU. As for B26, the figure is 0.00959 KA relative to UGCAUGU; as for B27, 0.0138 KA relative to UGCAUGU. The same measure for B28: 0.00559 KA relative to UGCAUGU; for B29: 0.000431 KA relative to UGCAUGU; for B30: 0.00838 KA relative to UGCAUGU. The same measure for B31: 0.0072 KA relative to UGCAUGU.
